{"source": "patent US20260053122A1", "about": "(JASPER THERAPEUTICS, published 2026)", "binders": {"B1": {"name": "chimeric c-KIT protein (mSP-hEC-mTM-mIC) (receptor)", "chain": "[sequence of about 500 residues omitted]LLIGFVVAAGAMGIIVMVLTYKYLQKPMYEVQWKVVEEINGNNYVYIDPTQLPYDHKWEFPRNRLSFGKTLGAGAFGKVVEATAYGLIKSDAAMTVAVKMLKPSAHLTEREALMSELKVLSYLGNHMNIVNLLGACTVGGPTLVITEYCCYGDLLNFLRRKRDSFIFSKQEEQAEAALYKNLLHSTEPSCDSSNEYMDMKPGVSYVVPTKTDKRRSARIDSYIERDVTPAIMEDDELALDLDDLLSFSYQVAKGMAFLASKNCIHRDLAARNILLTHGRITKICDFGLARDIRNDSNYVVKGNARLPVKWMAPESIFSCVYTFESDVWSYGIFLWELFSLGSSPYPGMPVDSKFYKMIKEGFRMVSPEHAPAEMYDVMKTCWDADPLKRPTFKQVVQLIEKQISDSTKHIYSNLANCNPNPENPVVVDHSVRVNSVGSSASSTQPLLVHEDA", "notes": "The signal peptide is left out here; also called chimeric human/mouse c-KIT; hmCD117"}}, "biological_target": "T1, human stem cell factor (SCF) (human, UniProt P21583 fragment, limits assumed)", "T1 construct": "also called hSCF; human SCF", "experiment": "inferred from SCF-induced proliferation and survival of transfected Ba/F3 cells (Example 1)", "procedure": "Stably transfected Ba/F3 cells were starved overnight and were stimulated with various concentrations of mouse or human SCF (stem cell factor) for 4 days. Cell survival was assessed by DAPI exclusion flow cytometry. Cell proliferation was assessed by EdU flow cytometry.", "data": [{"binder": "B1", "values": [{"measurement": "binding result", "value": "binds"}]}]}
